# Measured values as given in PMC4336329 (PLoS ONE, 2015).
# In all, about 310,000 compounds went through this assay and about 14,000 (4.5%) showed an effect of 50% or more. The effect is printed as a negative number. The list shows a part of the results.
# Biological target: human ether-à-go-go-related gene (hERG) potassium channel (human, UniProt Q12809)
# Experiment: primary screen, population patch clamp on CHO cells stably expressing hERG
# 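Also: peak tail current of the secondary pulse compared with the same well before compound.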
# Sequence of human ether-à-go-go-related gene (hERG) potassium channel (Q12809 whole entry, looked up): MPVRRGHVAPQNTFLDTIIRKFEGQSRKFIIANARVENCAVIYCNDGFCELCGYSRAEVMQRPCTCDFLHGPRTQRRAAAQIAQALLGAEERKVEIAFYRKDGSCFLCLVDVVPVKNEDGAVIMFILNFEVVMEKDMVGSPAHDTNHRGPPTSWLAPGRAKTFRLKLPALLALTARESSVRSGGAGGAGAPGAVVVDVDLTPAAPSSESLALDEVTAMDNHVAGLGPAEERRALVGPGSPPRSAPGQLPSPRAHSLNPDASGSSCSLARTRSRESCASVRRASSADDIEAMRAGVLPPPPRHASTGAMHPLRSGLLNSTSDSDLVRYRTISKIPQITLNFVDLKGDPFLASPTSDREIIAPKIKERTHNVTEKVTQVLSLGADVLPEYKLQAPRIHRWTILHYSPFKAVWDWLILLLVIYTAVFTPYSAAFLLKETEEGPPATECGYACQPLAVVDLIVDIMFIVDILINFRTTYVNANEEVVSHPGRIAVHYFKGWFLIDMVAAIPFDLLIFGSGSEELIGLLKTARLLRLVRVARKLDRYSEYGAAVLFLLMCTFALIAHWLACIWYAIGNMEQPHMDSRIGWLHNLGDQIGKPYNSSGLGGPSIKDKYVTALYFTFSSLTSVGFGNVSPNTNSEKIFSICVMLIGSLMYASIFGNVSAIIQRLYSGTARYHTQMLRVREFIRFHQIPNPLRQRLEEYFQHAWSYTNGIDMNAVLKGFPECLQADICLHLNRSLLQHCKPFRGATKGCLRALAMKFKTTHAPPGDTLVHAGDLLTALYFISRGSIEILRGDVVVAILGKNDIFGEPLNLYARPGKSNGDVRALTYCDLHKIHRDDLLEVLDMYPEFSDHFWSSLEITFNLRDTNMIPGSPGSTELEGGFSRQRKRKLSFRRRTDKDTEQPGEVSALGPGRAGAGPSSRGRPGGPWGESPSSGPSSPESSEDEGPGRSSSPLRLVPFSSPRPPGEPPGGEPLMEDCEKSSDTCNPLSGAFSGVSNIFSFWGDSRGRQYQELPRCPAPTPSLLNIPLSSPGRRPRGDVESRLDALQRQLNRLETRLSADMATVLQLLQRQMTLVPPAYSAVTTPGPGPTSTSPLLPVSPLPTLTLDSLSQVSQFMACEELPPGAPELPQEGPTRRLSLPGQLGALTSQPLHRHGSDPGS
row,SMILES,"hERG current change (%, negative = inhibition) at 10uM [%]"
1,CCOC(=O)/C=C/C(=O)NNC(=O)c1ccccc1Cl,6.55
2,O=C(CN1C(=O)c2ccccc2C1=O)Nc1cccc([N+](=O)[O-])c1,13.9
3,COc1ccc(C(C(=O)NC2CCCC2)N(Cc2cccnc2)C(=O)Cc2cccs2)c(OC)c1 (stereo not drawn),1.08
4,CCc1c(C(C)S(=O)(=O)c2ccccc2)[nH]c(=O)n1CC (stereo not drawn),9.71
5,Cc1ccc(C(=O)Nc2ccc(S(=O)(=O)NC3=NCCCCC3)cc2)c(C)c1,-9.74
6,Cc1ccc2c(c1)c1c(n2CC(O)CNC2CCCCC2)CCCC1.Cl (stereo not drawn),-37.4
7,CCc1ccc2[nH]c(=O)c(CN(CC3CCCO3)C(=S)NCc3ccco3)cc2c1 (stereo not drawn),-21.6
8,O=C(Nc1nccs1)c1c(O)c2cccc3c2n(c1=O)CCC3,9.28
9,O=C(CN1CCN(S(=O)(=O)c2ccc(Br)cc2)CC1)Nc1ccc(F)cc1F,-73.5
10,CCSc1ncc(/C=N/Nc2ccc(F)cc2)n1C,-31.8
11,S=C(Nc1ccccc1)N1CCCCC1,10.6
12,CCOC(=O)/C(=C\c1cccnc1)C(=O)c1cc(C(C)=O)c(Nc2ccccc2)s1,-34.6
13,CCOc1ccc([N+](=O)[O-])c(N)c1,0.0571
14,CC1(C)CC(=O)C(C2NCCc3ccccc32)=C(O)C1 (stereo not drawn),19.5
15,COc1ccc(/C=N/N2CCN(C3c4ccccc4-c4ccccc43)CC2)cc1OC,6.65
16,CN(c1ccccc1C(=O)Nc1ccc2c(c1)OCO2)S(C)(=O)=O,-1.26
17,CCC(=O)N=c1sc2ccccc2n1-c1ccccc1,17.8
18,COC(=O)c1ccc(COc2ccccc2OC)o1,4.67
19,Fc1cc(F)cc(-c2c(-c3ccccc3)ncc3ccc(F)cc23)c1,14.2

row,SMILES,"hERG current change (%, negative = inhibition) at 10uM [%]"
1,O=C1c2ccccc2C(=O)N1CC(O)COCc1ccccc1 (stereo not drawn),19.4
2,O=C(Cn1c(=O)n(Cc2ccccc2)c(=O)c2ccccc21)NCc1ccco1,-4.53
3,Cc1ccc(C2=NN(S(C)(=O)=O)C(c3cccs3)C2)cc1 (stereo not drawn),-4.62
4,COC(=O)c1[nH]c2ccccc2c1NC(=O)C(C)N1CCN(C(=O)c2ccco2)CC1 (stereo not drawn),-35.3
5,CN(C)c1ccc(C=Nc2cnn(C)c2C(N)=O)cc1,0.759
6,CCC(=O)Nc1ccc(OCc2nnc3c4ccccc4c(C)nn23)cc1,-5.77
7,Cc1ccc(S(=O)(=O)c2c(C)nn(-c3ccccc3)c2OC(=O)c2ccco2)cc1,1.19
8,O=C(CCC(=O)N1CCOc2ccccc21)Nc1cc(F)ccc1F,-8.84
9,Cc1cccc(NNC(N)=S)c1C,-5.6
10,CC(NCc1cccs1)c1ccccc1.Cl (stereo not drawn),11.1
11,C/C(=N\O)c1noc(C)c1C(=O)Nc1nccs1,19.2
12,CCn1c(SCC(=O)OCc2ccccc2)nc2c1c(=O)n(C)c(=O)n2C,-15
13,CCN1CCN(Cc2nc3ccc([N+](=O)[O-])cc3c(=O)n2-c2ccccc2F)CC1,17.9
14,O=C1C2CCCN2C(c2cccc(Br)c2)N1c1ccc(F)cc1 (stereo not drawn),-21.9
15,O=C(NC(=S)NNC(=O)[C@H]1C[C@@H]1c1ccccc1)c1cccc(F)c1,24.8
16,CC(C)NC[C@H](O)c1ccc(O)c(O)c1.Cl,-4.26
17,CCOC(=O)N1CCN(C(=O)CSc2nnc(COc3ccc(Cl)cc3)o2)CC1,-37.8
18,NC(=O)CSc1nnc(-c2cccc(S(=O)(=O)N3CCOCC3)c2)n1C1CCCCCC1,-13.1
19,CC(=O)c1cc(-c2ccc(F)cc2)n(CCC(=O)Nc2cc(C)[nH]n2)c1C,11.8

row,SMILES,"hERG current change (%, negative = inhibition) at 10uM [%]"
1,CCC(Oc1ccc(Br)cc1)C(=O)N1CCN(c2ncccn2)CC1 (stereo not drawn),-16.3
2,COc1ccc(-n2c(=S)[nH]c3cc(C(=O)NCCCN4CCCC4=O)ccc3c2=O)c(OC)c1,12.9
3,CCN(CC)CC(=O)Nc1c(C)cc(C(C)(C)C)cc1C.Cl,-41.8
4,COc1ccc(CC(=O)Nc2ccc(-c3nc4cc(C)ccc4o3)c(O)c2)cc1OC,7.1
5,Cc1cccc(CNC(=O)c2ccccc2N)c1,-14.5
6,CCOC(=O)c1c(NC(=O)c2ccoc2C)sc(C(=O)N(C)C)c1C,-2.62
7,COc1ccc(C(=O)NCc2nnc(SCCOc3ccccc3)n2C)cc1,-15.5
8,CC1(C)CC(=O)C=C(c2ccc3c(c2)OCO3)C1,-2.33
9,CC1CCN(C(=O)c2[nH]cnc2C(=O)N[C@@H](Cc2ccccc2)C(=O)OC(C)(C)C)CC1,-10
10,Cc1n[nH]c(C)c1CCN.Cl,12.9
11,Cn1c(C(=O)NCCN2CCc3ccccc3C2)cc2c(=O)[nH]c3ccccc3c21,-21.3
12,COc1ccc(NC(=O)CN(CC(=O)Nc2ccc(OC)cc2)C(C)(C)CO)cc1,13.8
13,COc1ccc(CC(=O)NCc2cccs2)cc1OC,2.71
14,O=C1CCCN1c1ccc(S(=O)(=O)N2CCCCC2)cc1,9.81
15,Cc1cc(-c2ccc(C)c(S(=O)(=O)N3CC(=O)Nc4ccccc43)c2)on1,4.16
16,COc1cc(OC)c(S(=O)(=O)NC(C)C)cc1S(=O)(=O)NC(C)C,2.64
17,COc1ccc(CCNC(=O)CN2C(=O)CSc3ccc(S(=O)(=O)N4CCOCC4)cc32)cc1OC,-0.827
18,O=C(c1ccc(-c2ccc([N+](=O)[O-])cc2)o1)N1CCCCCCC1,-22.7
19,CC(=O)Oc1ccc(C(=O)Nc2nnc(C)s2)cc1,-10.8
